Assay results: PubChem BioAssay AID1508623 (National Center for Advancing Translational Sciences (NCATS), 2021)
Among all 48,000 compounds or so, about 450 (0.94%) were called active. Not shown: some 19% with an inconclusive outcome. Calls come from the whole dose curve; as a rule, active = well fitted inhibition curve with a large enough effect; inconclusive = small, poorly fitted or top-dose-only effect; inactive = no such curve, though single readings can be large or run the other way. Some of the results follow.

Assay: Primary qHTS for Identification of Small Molecule Inhibitors of Huntingtin Promoter Activity; note: nearly all actives have a fitted effect of over 50% in size
Conditions: HEK293 HTT promoter firefly luciferase reporter (activity 0% = vehicle and -100% = no light), 24 h; series mostly up to 57.5 µM; activity change, negative = inhibition: at the top concentration
Outline: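 Firefly luciferase readout (Dual-Glo, 10 min RT) after 24 h, 37 °C compound exposure (final up to 57.5 uM) of HEK293 reporter cells cultured 24 h beforehand; PTC124 at 50 uM final as control inhibitor; activity scaled vehicle 0%, zero RLU -100%.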

Activity change, negative = inhibition, inactive:
Cc1ccc2cccc(NC(=O)c3ccc(-c4ccc(Cl)cc4Cl)o3)c2n1 -0.352%
COc1ccc(OC)c(CNC(=O)c2cc(=O)[nH]c3ccc(S(=O)(=O)N4CCCCC4C)cc23)c1 (stereo not drawn) -10.2%
CCOc1ccc(-c2cc(C)n3nc(C(=O)Nc4cc(Cl)ccc4O)cc3n2)cc1 -4.82%
COc1cccc(NC(=O)Cn2c(=O)n(Cc3nc(-c4ccccc4)no3)c(=O)c3ccccc32)c1 -20.7%
COc1ccccc1/C=C(\C#N)c1nc(-c2cc3ccccc3oc2=O)cs1 7.13%
CCC(=O)Nc1ccc(S(=O)(=O)NCc2cccn2Cc2cccc(C)c2)cc1 -21.6%
COc1ccc(S(=O)(=O)NCCc2sc(-c3ccccc3)nc2C)cc1OC -13%
CCOC(=O)N1CCC(NC(=O)c2cnn(-c3ccccc3)c2C2CCN(C(=O)OC(C)(C)C)CC2)CC1 -2.21%
O=C(NCCC1=CCCCC1)c1ccc2c(c1)ncn2-c1cccc(Cl)c1 21.3%
CCc1ccccc1NC(=O)CSc1ncc2c(n1)-c1ccccc1N(C)S2(=O)=O -29.2%
Cc1cccc(N2CCN(C(=O)Cc3c(C(=O)O)c(C)cn3C)CC2C)c1 (stereo not drawn) -21.2%
COc1ccc(N2CCN(C(=O)C3CCCN(S(=O)(=O)c4ccc5c(c4)oc(=O)n5C)C3)CC2)cc1 (stereo not drawn) -18.3%
COC(=O)c1c(NC(=O)COc2ccc(C(C)C)cc2)sc2c1CCCC2 10.6%
COc1ccc(C2CC(=O)Nc3c2c(C)nn3-c2nc(C)cc(C)n2)c(OC)c1OC (stereo not drawn) -5.54%
COc1ccccc1CCNC(=O)C1(c2cccs2)CCOCC1 5.71%
CCc1cccc(NC(=O)CCn2nc(C)cc2C)c1 -4.65%
CCC(=O)NCCc1sc2nc(-c3ccc(OC)cc3)nn2c1C 8.5%
CCCS(=O)(=O)Nc1cccc(-c2cn3ccsc3n2)c1 9.77%
COc1ccc(CCNC(=O)c2ccc3nc(CCc4ccccc4)oc3c2)cc1OC -24.7%
CCCCc1cc2ccccc2c(OCCN(C)C)n1 -8.6%
COc1ccc(OC)c(NC(=O)c2nnn(CC(=O)Nc3ccc(C(C)C)cc3)c2N)c1 -22.3%
COc1ccc(NC(=O)Cn2cnc3c(nc4n3CCCCC4)c2=O)cc1Cl -9.95%
Cc1ccc(N2C(=O)CSC23C(=O)N(CC(=O)NCCc2ccccc2)c2ccccc23)cc1 (stereo not drawn) -12.5%
CCC1CN(C(=O)N2CCC(C(=O)NCc3cccs3)CC2)c2ccccc2O1 (stereo not drawn) -24.8%
Cc1ccc(NC(=O)c2ccc(-c3ccccc3)s2)cc1 18.2%
COc1cccc(CNCc2c(C(=O)O)n(Cc3ccc(C)cc3)c3cc(C)ccc23)c1OC -19.6%
CC(=O)c1ccc(NC(=O)c2sc(-n3nc(C)c(Cc4ccc5c(c4)OCO5)c3C)nc2C)cc1 5.74%
COc1ccc(N2CCN(C(=O)c3noc4c3CCCCC4)CC2)cc1 8.68%
O=C(NCCc1nc2ccccc2n1Cc1ccc(Cl)cc1)c1ccccc1 -25.8%
CCOC(=O)c1ccccc1NC(=O)c1sc2nc(-c3ccc(F)cc3)cn2c1C -6.73%
Cc1nnc(NC(=O)CSc2nc3c([nH]c4ccccc43)c(=O)n2-c2cccc(Cl)c2)s1 -13.8%
COc1ccc(-c2nc3ccccc3o2)cc1NC(=O)c1cc(Br)ccc1OC -1.54%
COc1ccc(C)cc1NC(=O)NCCn1nnc2cc(S(=O)(=O)N(C)C)ccc21 -23.7%
Cc1ccc(C(=O)OCc2cc(=O)n3nc(CC(C)C)sc3n2)cc1 -16.7%
COc1ccc(CCNC(=O)c2cnc3sc(N4CCCCCC4)nn3c2=O)cc1 -24.2%
CC(C(=O)O)c1ccc2c(c1)[nH]c1ccc(Cl)cc12 (stereo not drawn) 0.114%
Cc1ccc2occ(CC(=O)Nc3c(C)cccc3C)c2c1 -20.7%
Cc1cc(C)cc(NCc2nnc3n2CCCCC3)c1 -9.74%
COc1ccc(OCC(=O)N2CCN(C(=O)c3ccc(OC)c(OC)c3)CC2)cc1 2.46%
Cc1cccc(C)c1NC(=O)C(C)N (stereo not drawn) 6.02%
Cc1cccc(C)c1NC(=O)CCSCCc1ccccn1 -14.8%
COc1cn(CC(=O)Nc2ccc(C)cc2)c(CN2CCCCC2)cc1=O -12.8%
CC(=O)N1CCc2cc(Br)cc(S(=O)(=O)CCC(=O)NCc3ccc(F)cc3)c21 -10.8%
COc1ccccc1CN1CCC(CNC(=O)c2cnn(-c3cccc(Cl)c3)c2C2CCN(C(=O)OC(C)(C)C)CC2)CC1 -6.29%
Cc1cc2c(cc1S(=O)(=O)NCc1ccc(F)cc1)OCC(=O)N2 -23.7%
COc1ccc(NC(=O)CN2C(=O)COc3ccc(S(=O)(=O)NC4CCCC4)cc32)cc1OC 6.43%
CCC(C(=O)NC(=O)NC(C)=O)c1ccccc1 (stereo not drawn) -4.86%
Cc1ccc(-n2ncc3c(NC4CCCCC4)ncnc32)cc1C -27.3%
O=C(c1ccccc1)n1nc(-c2ccc(Cl)cc2)nc1NCc1ccco1 40.1%
CCOC(=O)c1cc2c(=O)n3ccccc3nc2n(CCOC)c1=NC(=O)c1c(-c2c(F)cccc2Cl)noc1C -34.4%
CSc1ccc(CCNC(=O)Cn2ncc3c([nH]c4ccccc43)c2=O)cc1 -2.36%
COc1ccccc1C(=O)NC(=O)Nc1ccc(-c2cc(C(F)(F)F)nn2-c2ccccc2)cc1 -59.2%
CCc1ccc(C(=O)c2cn(CC(=O)Nc3ccc4c(c3)OCO4)c3ccc(Cl)cc3c2=O)cc1 -14.8%
CCc1ccc(N(CC)C(=O)c2cn(C)c(=O)c3cc(OC)c(OC)cc23)cc1 -0.581%
CCN(CC)c1ccc(NC(=O)C2CCN(S(=O)(=O)c3c(C)noc3/C=C/c3ccccc3F)CC2)c(C)c1 -20.5%
CC(C)(C)C1CCc2c(sc3nc(-c4cc5cc(Cl)ccc5oc4=O)[nH]c(=O)c23)C1 (stereo not drawn) -11.3%
Cc1ccc(S(=O)(=O)NCCc2nnc3ccc(SCC(=O)Nc4c(C)cc(C)cc4C)nn23)cc1 -7.84%
CCOc1ccc(CCNC(=O)c2c3c(nc4ccccc24)C(=O)N(C2CCCCC2)C3)cc1 -33.8%
CCn1c(CNC(=O)c2ccc(OC)cc2)nnc1SCC(=O)Nc1cccc(C)c1 -12.9%
Cc1ccc(S(=O)(=O)N2CCCc3cc(NC(=O)c4ccc(Cl)cc4)ccc32)cc1 -26.6%
COC(=O)c1c(NC(=O)c2cc(=O)c3cc(C)cc(C)c3o2)sc2c1CCC2 9.59%
COc1ccccc1NC(=O)c1cc2cc3ccc(OC)c(Cl)c3nc2s1 8.4%
Cc1ccc(CC(=O)NCc2nc(-c3ccccc3)no2)cc1 0.771%
